Experimental data: PubChem BioAssay AID624417 (National Center for Advancing Translational Sciences (NCATS), 2012)
Hit rate of the full screen: of about 410,000 compounds, about 6,400 (1.6%) were called active. This list was built around the results that the source calls inconclusive (neither active nor inactive); the mix of calls is not that of the screen. The call rests on the fitted dose curve; in most records, active means well fitted inhibition curve with a large enough effect; inconclusive means small, poorly fitted or top-dose-only effect; inactive means no such curve, though single readings can be large or run the other way. No potency is given beside an inconclusive call; the fits are too rough.
Further: nearly all actives have a fitted effect of over 55% in size.
Potency means the concentration at half of the fitted maximal effect; tags describe the fitted curve by direction and shape.

These compounds were tested against Glucagon-like peptide 1 receptor (Homo sapiens) (UniProt P43220) (assay: qHTS of GLP-1 Receptor Inverse Agonists (Inhibition Mode)). Settings: HEK293 GLP-1R CRE-luciferase, luminescence, 24 h, GLP-1R form is constitutively active; series mostly up to 38.3 µM.
UniProt P43220, sequence (P43220 whole entry, looked up): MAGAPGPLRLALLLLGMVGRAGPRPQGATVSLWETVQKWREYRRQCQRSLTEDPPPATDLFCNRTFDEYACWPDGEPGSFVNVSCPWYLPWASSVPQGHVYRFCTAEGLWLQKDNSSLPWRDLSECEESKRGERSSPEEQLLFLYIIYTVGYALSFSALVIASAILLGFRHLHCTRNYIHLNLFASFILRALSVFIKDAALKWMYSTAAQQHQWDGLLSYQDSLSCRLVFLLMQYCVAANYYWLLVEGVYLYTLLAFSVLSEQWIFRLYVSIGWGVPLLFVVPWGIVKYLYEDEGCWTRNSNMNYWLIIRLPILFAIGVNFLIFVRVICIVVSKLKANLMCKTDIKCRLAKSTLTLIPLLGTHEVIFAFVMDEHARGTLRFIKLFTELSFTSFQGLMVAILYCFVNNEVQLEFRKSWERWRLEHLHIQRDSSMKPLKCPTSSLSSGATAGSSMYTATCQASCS
Procedure, shortened: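 Assay principle: reduced luminescence from a cAMP-responsive reporter in HEK293 cells co-expressing a constitutively active GLP-1R. Conditions: 24 hr compound incubation, 37 deg C, 5% CO2.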
With `CC1=C(C(=O)OCc2ccc(C)cc2)C(c2ccccc2F)CC(=O)N1` (stereo not drawn) the Potency was inconclusive [inhibitor, partial curve].
`O=[N+]([O-])c1ccccc1CN1CCN(Cc2c[nH]c3ccccc23)CC1` was tested, and the Potency was inconclusive [inhibitor, partial curve, poor fit].
In the case of `COc1cc(NC(=O)C2CC(c3c(F)cccc3Cl)=NO2)c(OC)cc1Cl` (stereo not drawn), the Potency is reported as inconclusive [inhibitor, single point].
`CCN(CC)C(=O)[C@H]1CC(CC(=O)NCc2cccc(C(F)(F)F)c2)C(=O)N2CCc3c([nH]c4ccccc34)[C@]12C` (stereo partly drawn) was tested, and the Potency was inconclusive [inhibitor, single point].
With `O=C1/C(=C/c2cccc([N+](=O)[O-])c2)CCc2ccccc21` the Potency was “inactive”.
`CCCCCNC(=O)C(c1ccc(OC)cc1)n1c(=O)c(-c2cc3ccccc3[nH]2)nc2ccccc21` (stereo not drawn) was tested, and the Potency was inconclusive [inhibitor, partial curve, poor fit].
With `CC(C)(C)c1ccc(C(=O)NCC(=O)N/N=C/c2cccs2)cc1` the Potency was inconclusive [inhibitor, single point].
`CCCCC1C2=C(CCCC2=O)OC2=C1C(=O)CCC2` was tested, and the Potency was inconclusive [inhibitor, single point].
For `COC(=O)[C@]12CCCCC=C1N(Cc1ccc(Cl)cc1Cl)C(=O)[C@H](CC(=O)N1CCN(C(=O)c3ccco3)CC1)C2`, the Potency was inconclusive [inhibitor, single point].
In the case of `C=C(C)COc1ccc(-c2ncncc2-c2ccc(OC)cc2)c(O)c1`, the Potency is reported as inconclusive [inhibitor, single point].
`CCCN1CCC(NC(=O)c2cccc(Oc3ccccc3)c2)CC1` was tested, and the Potency was inconclusive [inhibitor, partial curve, poor fit].
For `CC(NC(=S)Nc1ccc(S(=O)(=O)N2CCOCC2)cc1)C1CC2CCC1C2` (stereo not drawn), the Potency was inconclusive [inhibitor, partial curve, poor fit].
For `O=C(COc1ccc(F)cc1Br)NCC1(N2CCOCC2)CCCCC1`, the Potency was inconclusive [inhibitor, single point].
For `O=C(CSc1nnc(Nc2ccccc2)s1)Nc1cccc(S(=O)(=O)N2CCCCC2)c1`, the Potency was inconclusive [inhibitor, single point].
With `CSc1nc2nccc(-c3ccc(Oc4ccccc4)cc3)n2n1` the Potency was inconclusive [inhibitor, single point].
With `COc1ccc(-c2csc3ncnc(N4CCN(S(=O)(=O)c5ccc(C)cc5)CC4)c23)cc1` the Potency was inconclusive [inhibitor, single point].
For `Cc1ccc(-c2cnc(C(O)c3c(C)cccc3C)[nH]2)cc1` (stereo not drawn), the Potency was inconclusive [inhibitor, partial curve].
With `O=C(c1ccc(CN2CCc3ccccc3C2)cc1)N1CCCCC1` the Potency was inconclusive [inhibitor, partial curve].
With `CCc1ccc(CNC(=O)c2c3c(nc4ccccc24)C(=O)N(C2CCCCC2)C3)cc1` the Potency was inconclusive [inhibitor, full curve, poor fit].
With `CCN(CC)C(=O)CSc1nnc(-c2cc(OC)cc(OC)c2)o1` the Potency was inconclusive [inhibitor, single point].
`Cc1ccc2sc(N(CCN(C)C)C(=O)c3ccc(S(=O)(=O)N4CC(C)OC(C)C4)cc3)nc2c1C` (stereo not drawn) was tested, and the Potency was inconclusive [inhibitor, partial curve, poor fit].
In the case of `CC1CC1C(=O)OCC(=O)Nc1ccc(N=Nc2ccccc2)cc1` (stereo not drawn), the Potency is reported as inconclusive [inhibitor, single point].
`Cc1ccccc1NC(=S)N1CCN(c2ccccc2Cl)CC1` was tested, and the Potency was inconclusive [inhibitor, partial curve, poor fit].
`Cc1cc(NS(=O)(=O)c2ccc(NC(=O)C(C)Oc3ccc(Cl)cc3)cc2)no1` (stereo not drawn) was tested, and the Potency was inconclusive [inhibitor, single point].
In the case of `Clc1ccc(OCCN2CCCCC2)cc1Cl`, the Potency is reported as “inactive”.
With `Cc1ccc(-n2c(SCC(=O)Nc3ncc(Cl)cc3Cl)nc3ccccc32)cc1` the Potency was inconclusive [inhibitor, full curve, poor fit].
For `CCOC(=O)c1ccc(N2C(=O)c3[nH]nc(-c4ccc(C)cc4)c3C2c2ccc(O)c(OCC)c2)cc1` (stereo not drawn), the Potency was inconclusive [inhibitor, single point].
With `Cn1c(=O)c2c(nc(N/N=C/c3ccc(OC(=O)c4ccco4)cc3)n2Cc2ccc(F)cc2)n(C)c1=O` the Potency was “inactive”.
`O=C(CCc1ccccc1)Nc1sc2c(c1C(=O)O)CCCC2` was tested, and the Potency was inconclusive [inhibitor, single point].
`Cc1cccc(C(=O)CC(=O)c2cc(Cl)ccc2O)c1` was tested, and the Potency was inconclusive [inhibitor, partial curve, poor fit].
For `Cc1cccc(OCCSc2nc3ccccc3n2CC(=O)N2CCOCC2)c1`, the Potency was “inactive”.
In the case of `COc1ccc(F)cc1C(=O)C1CCCN(Cc2cccn2-c2cccnc2)C1` (stereo not drawn), the Potency is reported as inconclusive [inhibitor, partial curve].
With `Cc1ccccc1CN(CC(=O)Nc1cccc([N+](=O)[O-])c1)S(=O)(=O)c1ccc(Cl)cc1` the Potency was inconclusive [inhibitor, partial curve, poor fit].
`Cc1c(C(=O)Nc2ccc(F)cc2)cn2c(nc3ccccc32)c1C#N` was tested, and the Potency was “inactive”.
`O=C(CC1OC(=O)c2ccccc21)Nc1ccc(Cl)c(S(=O)(=O)N2CCCCC2)c1` (stereo not drawn) was tested, and the Potency was inconclusive [inhibitor, partial curve].
In the case of `CC(=O)Nc1sc(C)c(C)c1C(=O)OCCOc1ccccc1`, the Potency is reported as inconclusive [inhibitor, single point].
In the case of `c1ccc(Cc2c(-c3ccccc3)nc3c4ccccc4ccn23)cc1`, the Potency is reported as inconclusive [inhibitor, single point].
`COc1cc(C)c(C(C)C)cc1S(=O)(=O)NC1CC(C)(C)NC(C)(C)C1` was tested, and the Potency was inconclusive [inhibitor, partial curve, poor fit].
